# Source: the supplement of paper PMC8728848
# Some of the results follow.
# B1: Gal 7 (Homo sapiens) (protein)
# chain: MSNVPHKSSLPEGIRPGTVLRIRGLVPPNASRFHVNLLCGEEGGSDAALHFNPRLDTSEVVFNSKEGGSWGREESGPGVPFGRGQPFEVLIIASDDGFKAVVGDAQYHHFRHRLPLARVRLVEVGGDVQLDSVRIF
# Legend:
# Experiment in all cases: glycan array binding signal (z-score within array); higher = stronger binding
# Details in all cases: glycan notation: IUPAC condensed, linker removed; mutation: R74S
# [1] = molecular target: Gal(b1-4)GalNAc(b1-3)[Fuc(a1-2)]Gal(b1-4)GlcNAc
# Method in brief: (§1)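 Glycan array data were curated from 3228 arrays in the Consortium for Functional Glycomics database and kept only where the protein sequence was available. Glycan names were converted to IUPAC-condensed notation, and columns mapping to the same glycan were averaged. The binding signal is a within-array Z-score, averaged across arrays of the same protein sequence at different concentrations or buffers and across linkers. Negative Z-scores can be read as non-binding.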
# Gal(b1-4)Glc = molecular target: Gal(b1-4)Glc
# Method in brief: as §1
# Gal(b1-4)Glc6S = molecular target: Gal(b1-4)Glc6S
# Method in brief: as §1
# Gal(b1-4)GlcNAc = molecular target: Gal(b1-4)GlcNAc
# Method in brief: as §1
# [2] = molecular target: Gal(b1-4)GlcNAc(a1-6)Gal(b1-4)GlcNAc
# Method in brief: as §1
# Gal(b1-4)GlcNAc(b1-2)Man = molecular target: Gal(b1-4)GlcNAc(b1-2)Man
# Method in brief: as §1
# [3] = molecular target: Gal(b1-4)GlcNAc(b1-2)Man(a1-3)Man(b1-4)GlcNAc(b1-4)GlcNAc
# Method in brief: as §1
# [4] = molecular target: Gal(b1-4)GlcNAc(b1-2)Man(a1-3)[Gal(b1-4)GlcNAc(b1-2)Man(a1-6)]Man(b1-4)GlcNAc(b1-4)GlcNAc
# Method in brief: as §1
# [5] = molecular target: Gal(b1-4)GlcNAc(b1-2)Man(a1-3)[Gal(b1-4)GlcNAc(b1-2)Man(a1-6)]Man(b1-4)GlcNAc(b1-4)[Fuc(a1-6)]GlcNAc
# Method in brief: as §1
# [6] = molecular target: Gal(b1-4)GlcNAc(b1-2)Man(a1-3)[Gal(b1-4)GlcNAc(b1-2)Man(a1-6)][Gal(b1-4)GlcNAc(b1-4)]Man(b1-4)GlcNAc(b1-4)[Fuc(a1-6)]GlcNAc
# Method in brief: as §1
# [7] = molecular target: Gal(b1-4)GlcNAc(b1-2)Man(a1-3)[Gal(b1-4)GlcNAc(b1-2)Man(a1-6)][GlcNAc(b1-4)]Man(b1-4)GlcNAc(b1-4)[Fuc(a1-6)]GlcNAc
# Method in brief: as §1
# [8] = molecular target: Gal(b1-4)GlcNAc(b1-2)Man(a1-3)[GlcNAc(b1-2)Man(a1-6)]Man(b1-4)GlcNAc(b1-4)GlcNAc
# Method in brief: as §1
# [9] = molecular target: Gal(b1-4)GlcNAc(b1-2)Man(a1-3)[GlcNAc(b1-4)][Gal(b1-4)GlcNAc(b1-2)Man(a1-6)]Man(b1-4)GlcNAc(b1-4)GlcNAc
# Method in brief: as §1
# [10] = molecular target: Gal(b1-4)GlcNAc(b1-2)Man(a1-3)[Man(a1-6)]Man(b1-4)GlcNAc(b1-4)GlcNAc
# Method in brief: as §1
# [11] = molecular target: Gal(b1-4)GlcNAc(b1-2)Man(a1-6)Man(b1-4)GlcNAc(b1-4)GlcNAc
# Method in brief: as §1
# [12] = molecular target: Gal(b1-4)GlcNAc(b1-2)Man(a1-6)[GlcNAc(b1-2)Man(a1-3)]Man(b1-4)GlcNAc(b1-4)GlcNAc
# Method in brief: as §1
# [13] = molecular target: Gal(b1-4)GlcNAc(b1-2)Man(a1-6)[Man(a1-3)]Man(b1-4)GlcNAc(b1-4)GlcNAc
# Method in brief: as §1
# [14] = molecular target: Gal(b1-4)GlcNAc(b1-2)[Gal(b1-4)GlcNAc(b1-4)]Man(a1-3)[Gal(b1-4)GlcNAc(b1-2)Man(a1-6)]Man(b1-4)GlcNAc(b1-4)GlcNAc
# Method in brief: as §1
# [15] = molecular target: Gal(b1-4)GlcNAc(b1-2)[Gal(b1-4)GlcNAc(b1-4)]Man(a1-3)[Gal(b1-4)GlcNAc(b1-2)[Gal(b1-4)GlcNAc(b1-6)]Man(a1-6)]Man(b1-4)GlcNAc(b1-4)GlcNAc
# Method in brief: as §1
# [16] = molecular target: Gal(b1-4)GlcNAc(b1-2)[Gal(b1-4)GlcNAc(b1-4)]Man(a1-3)[GlcNAc(b1-4)][Gal(b1-4)GlcNAc(b1-2)Man(a1-6)]Man(b1-4)GlcNAc(b1-4)GlcNAc
# Method in brief: as §1
# [17] = molecular target: Gal(b1-4)GlcNAc(b1-2)[Gal(b1-4)GlcNAc(b1-4)]Man(a1-3)[GlcNAc(b1-4)][Gal(b1-4)GlcNAc(b1-2)[Gal(b1-4)GlcNAc(b1-6)]Man(a1-6)]Man(b1-4)GlcNAc(b1-4)GlcNAc
# Method in brief: as §1
# [18] = molecular target: Gal(b1-4)GlcNAc(b1-2)[Gal(b1-4)GlcNAc(b1-6)]Man(a1-6)[Gal(b1-4)GlcNAc(b1-2)Man(a1-3)]Man(b1-4)GlcNAc(b1-4)GlcNAc
# Method in brief: as §1
binder,measurement,setting,value
B1,glycan array binding signal (z-score),[1],-0.54
same,glycan array binding signal (z-score),Gal(b1-4)Glc,-0.398
same,glycan array binding signal (z-score),Gal(b1-4)Glc6S,-0.449
same,glycan array binding signal (z-score),Gal(b1-4)GlcNAc,0.007
same,glycan array binding signal (z-score),[2],-0.469
same,glycan array binding signal (z-score),Gal(b1-4)GlcNAc(b1-2)Man,0.218
same,glycan array binding signal (z-score),[3],-0.422
same,glycan array binding signal (z-score),[4],-0.525
same,glycan array binding signal (z-score),[5],-0.067
same,glycan array binding signal (z-score),[6],-0.301
same,glycan array binding signal (z-score),[7],-0.374
same,glycan array binding signal (z-score),[8],-0.518
same,glycan array binding signal (z-score),[9],-0.353
same,glycan array binding signal (z-score),[10],-0.132
same,glycan array binding signal (z-score),[11],-0.36
same,glycan array binding signal (z-score),[12],-0.228
same,glycan array binding signal (z-score),[13],-0.576
same,glycan array binding signal (z-score),[14],0.975
same,glycan array binding signal (z-score),[15],-0.184
same,glycan array binding signal (z-score),[16],-0.403
same,glycan array binding signal (z-score),[17],-0.385
same,glycan array binding signal (z-score),[18],-0.379
